Reference: paper PMC10033651
No constants are given. Whether binding was seen depends on the method and setting. In cells and extracts the contact can be indirect. Some entries that bind do so weakly or less than the wild type. For some assays here: Sequences can lack the tags named with a protein.

Amino acid sequences for entries named in this document (tags omitted). A change or cut given only in a name is not applied to a line headed by its entry. Chains listed by the source or under a name are the forms on record and can include a tag or linker.
UniProt Q93009: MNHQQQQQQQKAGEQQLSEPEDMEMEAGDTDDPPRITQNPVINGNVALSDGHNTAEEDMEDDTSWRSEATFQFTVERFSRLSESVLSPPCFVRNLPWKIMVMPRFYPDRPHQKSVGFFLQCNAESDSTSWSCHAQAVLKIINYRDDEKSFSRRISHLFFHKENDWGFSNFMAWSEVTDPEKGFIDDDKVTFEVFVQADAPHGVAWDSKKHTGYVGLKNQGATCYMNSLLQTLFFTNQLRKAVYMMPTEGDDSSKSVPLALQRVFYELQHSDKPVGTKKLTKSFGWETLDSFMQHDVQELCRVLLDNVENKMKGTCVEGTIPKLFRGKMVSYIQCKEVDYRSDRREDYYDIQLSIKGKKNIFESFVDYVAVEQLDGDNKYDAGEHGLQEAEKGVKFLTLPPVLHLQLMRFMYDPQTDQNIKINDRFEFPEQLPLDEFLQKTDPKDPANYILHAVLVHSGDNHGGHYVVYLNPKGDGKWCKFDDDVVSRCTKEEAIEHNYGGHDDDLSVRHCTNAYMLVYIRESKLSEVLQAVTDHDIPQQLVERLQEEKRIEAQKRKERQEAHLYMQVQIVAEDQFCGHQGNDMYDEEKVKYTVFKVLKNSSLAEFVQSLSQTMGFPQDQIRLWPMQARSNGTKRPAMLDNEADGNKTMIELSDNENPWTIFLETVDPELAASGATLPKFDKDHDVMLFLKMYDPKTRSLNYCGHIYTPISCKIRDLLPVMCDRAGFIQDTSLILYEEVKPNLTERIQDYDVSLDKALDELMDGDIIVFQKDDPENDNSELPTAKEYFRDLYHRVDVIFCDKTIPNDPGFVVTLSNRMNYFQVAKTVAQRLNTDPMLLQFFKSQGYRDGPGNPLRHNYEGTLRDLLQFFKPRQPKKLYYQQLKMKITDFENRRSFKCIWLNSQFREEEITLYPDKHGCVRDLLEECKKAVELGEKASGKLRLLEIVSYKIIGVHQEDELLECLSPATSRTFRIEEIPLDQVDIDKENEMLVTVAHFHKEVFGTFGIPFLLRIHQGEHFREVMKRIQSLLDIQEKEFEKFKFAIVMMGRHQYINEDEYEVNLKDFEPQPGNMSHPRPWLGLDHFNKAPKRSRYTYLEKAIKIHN
UniProt Q14694: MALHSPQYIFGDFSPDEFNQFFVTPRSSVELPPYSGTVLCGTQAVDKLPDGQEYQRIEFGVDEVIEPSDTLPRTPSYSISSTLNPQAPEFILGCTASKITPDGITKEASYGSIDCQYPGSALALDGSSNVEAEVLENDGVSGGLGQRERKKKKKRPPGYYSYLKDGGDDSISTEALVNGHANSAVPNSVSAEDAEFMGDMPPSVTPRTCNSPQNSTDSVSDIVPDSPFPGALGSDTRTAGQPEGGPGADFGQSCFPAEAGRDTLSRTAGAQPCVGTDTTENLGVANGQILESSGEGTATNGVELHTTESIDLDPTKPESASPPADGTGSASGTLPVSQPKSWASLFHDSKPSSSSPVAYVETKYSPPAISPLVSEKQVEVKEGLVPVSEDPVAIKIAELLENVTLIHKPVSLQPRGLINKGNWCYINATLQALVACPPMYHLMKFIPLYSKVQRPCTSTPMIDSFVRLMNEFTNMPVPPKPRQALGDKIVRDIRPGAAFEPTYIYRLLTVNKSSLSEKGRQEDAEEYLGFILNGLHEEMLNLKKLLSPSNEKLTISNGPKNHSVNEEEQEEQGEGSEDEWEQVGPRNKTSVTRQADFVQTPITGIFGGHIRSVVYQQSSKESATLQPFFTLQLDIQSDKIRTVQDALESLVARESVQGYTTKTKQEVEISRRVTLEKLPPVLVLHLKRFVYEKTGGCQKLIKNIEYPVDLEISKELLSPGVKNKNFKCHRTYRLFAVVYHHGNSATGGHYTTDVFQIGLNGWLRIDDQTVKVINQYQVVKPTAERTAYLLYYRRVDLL
UniProt Q01196: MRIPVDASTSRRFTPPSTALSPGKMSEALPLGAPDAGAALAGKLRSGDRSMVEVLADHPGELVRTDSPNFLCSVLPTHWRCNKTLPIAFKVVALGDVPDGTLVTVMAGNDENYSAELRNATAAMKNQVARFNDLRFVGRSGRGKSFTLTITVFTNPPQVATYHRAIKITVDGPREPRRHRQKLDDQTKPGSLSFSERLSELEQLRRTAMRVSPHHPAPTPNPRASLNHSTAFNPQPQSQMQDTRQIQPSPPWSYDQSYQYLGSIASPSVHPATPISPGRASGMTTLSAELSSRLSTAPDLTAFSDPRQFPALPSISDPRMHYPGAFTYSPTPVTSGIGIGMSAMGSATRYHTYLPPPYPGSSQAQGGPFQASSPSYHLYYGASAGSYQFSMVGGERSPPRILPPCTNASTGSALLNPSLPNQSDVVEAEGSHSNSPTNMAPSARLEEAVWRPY
His-tagged full-length (FL) RUNX1 (Q01196-8, form named): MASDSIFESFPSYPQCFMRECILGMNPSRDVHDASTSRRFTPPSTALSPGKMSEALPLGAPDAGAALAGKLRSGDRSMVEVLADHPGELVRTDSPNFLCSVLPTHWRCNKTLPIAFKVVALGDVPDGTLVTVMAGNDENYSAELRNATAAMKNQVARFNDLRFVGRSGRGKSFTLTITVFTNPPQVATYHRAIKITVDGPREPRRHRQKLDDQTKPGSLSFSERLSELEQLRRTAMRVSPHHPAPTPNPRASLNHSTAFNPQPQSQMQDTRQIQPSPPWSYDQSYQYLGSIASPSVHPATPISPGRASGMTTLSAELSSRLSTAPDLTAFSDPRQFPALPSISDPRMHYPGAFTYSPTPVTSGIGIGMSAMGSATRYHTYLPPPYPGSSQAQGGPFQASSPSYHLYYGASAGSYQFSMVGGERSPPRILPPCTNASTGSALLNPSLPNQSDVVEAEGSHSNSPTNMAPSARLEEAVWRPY

Assays:
Flag-tagged USP36 = molecular target: T1, Flag-tagged USP36 (UniProt Q9P275); test: co-IP; Flag-tagged DUBs expressed in HEK293T cells; lysates precipitated with Flag beads, blotted for RUNX1 and Flag
T1 sequence: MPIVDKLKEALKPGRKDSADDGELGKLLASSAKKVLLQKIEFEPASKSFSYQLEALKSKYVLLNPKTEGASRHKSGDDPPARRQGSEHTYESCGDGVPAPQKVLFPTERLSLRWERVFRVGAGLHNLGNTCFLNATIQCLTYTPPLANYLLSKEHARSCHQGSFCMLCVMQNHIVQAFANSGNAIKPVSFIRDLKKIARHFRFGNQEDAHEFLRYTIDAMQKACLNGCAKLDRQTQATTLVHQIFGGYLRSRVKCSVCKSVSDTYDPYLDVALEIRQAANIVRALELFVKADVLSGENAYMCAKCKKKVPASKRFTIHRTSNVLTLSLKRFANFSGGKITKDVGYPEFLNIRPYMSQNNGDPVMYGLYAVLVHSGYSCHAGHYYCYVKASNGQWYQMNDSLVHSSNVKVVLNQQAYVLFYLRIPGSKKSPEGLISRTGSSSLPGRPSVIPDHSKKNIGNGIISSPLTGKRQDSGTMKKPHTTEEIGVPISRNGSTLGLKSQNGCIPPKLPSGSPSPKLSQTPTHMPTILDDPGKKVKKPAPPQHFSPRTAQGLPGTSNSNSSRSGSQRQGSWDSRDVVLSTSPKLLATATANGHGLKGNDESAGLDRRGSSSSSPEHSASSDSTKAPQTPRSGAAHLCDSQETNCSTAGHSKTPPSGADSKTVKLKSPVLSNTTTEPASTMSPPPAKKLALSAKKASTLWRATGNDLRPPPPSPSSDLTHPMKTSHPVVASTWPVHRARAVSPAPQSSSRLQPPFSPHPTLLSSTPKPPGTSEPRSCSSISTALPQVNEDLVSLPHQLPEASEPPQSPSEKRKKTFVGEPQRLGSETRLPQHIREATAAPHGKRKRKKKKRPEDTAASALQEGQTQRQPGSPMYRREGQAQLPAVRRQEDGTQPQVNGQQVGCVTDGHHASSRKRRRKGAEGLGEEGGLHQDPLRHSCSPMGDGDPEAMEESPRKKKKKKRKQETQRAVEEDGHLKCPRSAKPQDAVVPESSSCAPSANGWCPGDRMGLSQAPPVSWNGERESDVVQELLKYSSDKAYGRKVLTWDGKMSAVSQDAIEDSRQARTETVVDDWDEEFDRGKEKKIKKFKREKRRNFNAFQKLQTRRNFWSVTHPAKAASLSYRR

Flag-tagged USP4 = molecular target: T2, Flag-tagged USP4 (UniProt Q13107); test: as above
T2 sequence: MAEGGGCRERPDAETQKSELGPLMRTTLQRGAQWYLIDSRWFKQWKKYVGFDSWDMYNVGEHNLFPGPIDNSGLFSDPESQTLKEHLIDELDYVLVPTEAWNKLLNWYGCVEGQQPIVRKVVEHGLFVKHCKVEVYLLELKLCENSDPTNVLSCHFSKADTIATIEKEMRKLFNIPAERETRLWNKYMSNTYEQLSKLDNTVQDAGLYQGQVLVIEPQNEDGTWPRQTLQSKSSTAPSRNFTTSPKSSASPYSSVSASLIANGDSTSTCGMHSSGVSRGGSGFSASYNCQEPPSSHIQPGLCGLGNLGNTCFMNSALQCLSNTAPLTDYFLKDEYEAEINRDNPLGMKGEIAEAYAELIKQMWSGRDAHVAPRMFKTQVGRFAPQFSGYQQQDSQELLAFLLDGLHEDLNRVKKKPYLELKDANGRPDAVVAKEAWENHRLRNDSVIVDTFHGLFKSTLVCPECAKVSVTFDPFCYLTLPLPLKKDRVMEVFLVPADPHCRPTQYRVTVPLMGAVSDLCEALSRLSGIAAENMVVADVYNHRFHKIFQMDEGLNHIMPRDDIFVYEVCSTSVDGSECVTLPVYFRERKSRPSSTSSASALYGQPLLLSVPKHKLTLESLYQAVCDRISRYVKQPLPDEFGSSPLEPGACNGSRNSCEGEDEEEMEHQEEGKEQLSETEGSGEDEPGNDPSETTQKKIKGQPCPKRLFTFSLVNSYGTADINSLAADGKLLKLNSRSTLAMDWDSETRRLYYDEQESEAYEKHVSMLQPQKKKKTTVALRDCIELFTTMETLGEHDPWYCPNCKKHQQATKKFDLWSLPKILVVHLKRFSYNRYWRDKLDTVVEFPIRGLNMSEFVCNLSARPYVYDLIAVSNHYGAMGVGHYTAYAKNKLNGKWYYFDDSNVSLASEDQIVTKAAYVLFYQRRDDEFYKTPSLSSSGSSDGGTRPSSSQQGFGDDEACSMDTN

Flag-tagged USP7 = Flag-tagged USP7 (UniProt Q93009); test: as above
[1] = molecular target: Flag-tagged full-length (FL) USP10, wild type (UniProt Q14694); test: as above
[2] = molecular target: USP10, endogenous in LN229 and GBM2 cells (human (endogenous in LN229 and GBM2)) (UniProt Q14694); test: co-IP; endogenous USP10 and RUNX1 in LN229 and GBM2 cells
GST-USP10 C424A = GST-USP10 C424A (UniProt Q14694); test: pull-down; unubiquitinated or ubiquitinated His-RUNX1 incubated with purified GST-USP10 C424A coupled to glutathione-Sepharose beads, cell-free; retained proteins immunoblotted
[3] = molecular target: Flag-tagged USP10 C424A (dominant negative form that lost its DUB activity) (UniProt Q14694); test: co-IP; His-RUNX1 and Flag-USP10 (full length, C424A or deletion mutants) in HEK293T cells; NETN buffer, protein A/G agarose beads, 4 °C, four washes
[4] = molecular target: Flag-tagged full-length (FL) USP10, wild type (UniProt Q14694); test: as above

RUNX1 (Runt-related transcription factor 1), endogenous in HEK293T cells (from UniProt Q01196 1-453)
binding (Flag-tagged USP36): no binding
binding (Flag-tagged USP4): no binding
binding (Flag-tagged USP7): no binding
binding [1]: binds

RUNX1, endogenous in LN229 and GBM2 cells (from UniProt Q01196 1-453)
binding [2]: binds

His-RUNX1, unubiquitinated or ubiquitinated, as used under cell-free conditions (from UniProt Q01196-8 1-480)
binding (GST-USP10 C424A): binds

His-tagged full-length (FL) RUNX1 (from UniProt Q01196-8 1-480)
binding [3]: binds
binding [4]: binds
